Reference: PubChem BioAssay AID1345083 (National Center for Advancing Translational Sciences (NCATS), 2018)
Out of some 94,000 compounds screened, about 6,200 (6.6%) were called active. Inconclusive results, whose numbers are uncertain, are shown with a selection of clear calls. The call rests on the fitted dose curve; in most records, active means well fitted inhibition curve with a large enough effect; inconclusive means small, poorly fitted or top-dose-only effect; inactive means flat fitted curve, though single readings scatter. A potency beside an inconclusive call is a rough fit, not a confirmed value.

assay: Cytotoxic Profiling in HEK 293 Cell Line of Diverse Libraries Using Quantitative High-Throughput Screening; conditions: HEK 293 viability, ATP luminescence (CellTiter-Glo), 48-72 h; activity change, negative = cytotoxicity: at 115 µM (top of the series) unless noted; series mostly up to 115 µM; further: nearly all actives have a fitted effect of over 60% in size
In short: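 Read-out: CellTiter-Glo ATP luminescence. Cells: HEK 293, 250 cells/well. Exposure: 48 or 72 hr, 37 degree Celsius.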
On the % scale 0 is the no-effect control and ±100 the full control effect; potency means the concentration at half of the fitted maximal effect; tags describe the fitted curve by direction and shape.

Row | SMILES | Potency | activity change, negative = cytotoxicity | outcome
1 | CC(C)CNC(=O)c1ccc2nnc(-c3cccc(C(F)(F)F)c3)n2c1 | inconclusive: 11.2 µM [inhibitor, full curve, poor fit] |  | 
2 | Cc1cccc(C2CCCN(C(=O)c3cn(CCc4ccccc4)nn3)C2)c1 (stereo not given) | active: 39.8 µM |  | 
3 | COC(=O)[C@H](Cc1ccc(OC)cc1)NC(=O)[C@@H]1CN(S(C)(=O)=O)CCN1C(C)=O |  | inactive: -2.65% | 
4 | O=C(Nc1ccc(-c2cccc(F)c2)cc1)C1CCCN1Cc1cnc[nH]1 (stereo not given) |  | inactive: -62.4% | 
5 | COCc1ccc2c(c1)c(OC(C)(C)C(=O)NC1CCOCC1)nn2Cc1ccccc1 | inconclusive: 126 µM [inhibitor, single point] |  | 
6 | CCN1c2cc(C(=O)Nc3ccc(OC)cc3OC)ccc2C(=O)N2CCCCC21 (stereo not given) | inconclusive: 50.1 µM [inhibitor, partial curve, poor fit] |  | 
7 | Cc1nn(C)cc1CN1C[C@@H]2C(=O)N(Cc3ccc4c(c3)OCO4)C(=O)[C@@H]2C1 | inconclusive: 12.6 µM [inhibitor, partial curve, poor fit] |  | 
8 | Cn1ncc2c(C(=O)Nc3cccc(C(F)(F)F)c3)cc(-c3ccccc3F)nc21 | inconclusive: 22.4 µM [inhibitor, full curve, poor fit] |  | 
9 | COc1ccc(CN2C(=O)COC[C@@H]2[C@H](O)c2ccc(NC(=O)Cc3ccccc3)cc2)cc1 | inconclusive: 10 µM [inhibitor, full curve, poor fit] |  | 
10 | CCc1cccc2c(C(CC(=O)NCC(C)C)c3cccc([N+](=O)[O-])c3)c[nH]c12 (stereo not given) | inconclusive: 50.1 µM [inhibitor, partial curve, poor fit] |  | 
11 | COC(=O)CN1C(=O)N(CCc2ccccc2)C2(CCN(Cc3ccc4c(c3)CCO4)CC2)C1=O |  | inactive: 4.17% | 
12 | Cc1cc(C[C@@H]2COC[C@@H]2NC(=O)c2ccc(-c3ccccc3Cl)o2)on1 | inconclusive: 89.1 µM [inhibitor, partial curve, poor fit] |  | 
13 | C#CCNC(=O)c1cc(C(C)(C)C)nc2c1cnn2C | inconclusive: 89.1 µM [inhibitor, single point] |  | 
14 | COc1ccccc1N1CCN(C(=O)C[C@@H]2C[C@@H](C(C)C)[C@H](CC#N)C=C2C)CC1 | active: 35.5 µM |  | 
15 | CCN1Cc2nc(OC)c(CNC(=O)c3cc(C4CC4)[nH]n3)cc2C1=O | inconclusive: 100 µM [inhibitor, single point] |  | 
16 | O=C(NCCCc1ccccc1)c1cc(-c2ccccc2)c2nncn2n1 | active: 44.7 µM |  | 
17 | Cc1ccc([S+](=O)([O-])N2CCN(Cc3ccccc3-c3ccccc3F)CC2)cc1 | inconclusive: 50.1 µM [inhibitor, partial curve, poor fit] |  | 
18 | CNC(=O)NC[C@H]1CCN(Cc2ccc(F)cc2F)C[C@H]1N(C)C |  |  | inactive
19 | O=C(c1cccc(F)c1)N1CCCCCC1c1nnc(-c2ccccc2)o1 (stereo not given) | inconclusive: 100 µM [inhibitor, single point] |  | 
20 | Cc1ccc(CN2CCc3oc(C)c(C(=O)N4CCSCC4)c3C2)cc1 | inconclusive: 79.4 µM [inhibitor, partial curve, poor fit] |  | 
21 | COc1cccc(CN2CCOC3CCN(Cc4ccccc4Cl)CC3C2=O)c1 (stereo not given) | inconclusive: 100 µM [inhibitor, partial curve] |  | 
22 | COCCOc1cc(-c2noc([C@@H]3CCCN3C3CCC3)n2)ccn1 | inconclusive: 100 µM [inhibitor, partial curve, poor fit] |  | 

Row | SMILES | Potency | activity change, negative = cytotoxicity | outcome
23 | Cc1ccc(C)c(Cn2ccn3nc4c(c3c2=O)CCCC4)c1 | active: 39.8 µM |  | 
24 | O=C(Nc1ccc([C@H]2OCC(=O)N(Cc3ccccc3)[C@@H]2CO)cc1)C1CCOCC1 | inconclusive: 56.2 µM [inhibitor, full curve, poor fit] |  | 
25 | O=C(c1nc2cccnc2n(CCc2ccccc2)c1=O)N1CCN([S+](=O)([O-])c2cccs2)CC1 | inconclusive: 22.4 µM [inhibitor, full curve, poor fit] |  | 
26 | O=C(CCCc1ccccc1)N1C[C@@H](CO)[C@H](c2nc(C3CC3)no2)C1 | inconclusive: 89.1 µM [inhibitor, single point] |  | 
27 | COC(=O)[C@@H]1Cc2ncn(C(C)C)c2CN1C(=O)c1ccc(C(F)(F)F)cc1 |  |  | inactive [at 172 µM]
28 | O=C(c1cnc2c(c1)N(C(=O)CCc1ccccc1)CCC2)N1CCC(c2ccccc2)CC1 | active: 79.4 µM |  | 
29 | CC1(C)CNC(=O)c2nc(CCSCc3ccco3)[nH]c2C1 |  | inactive: 0.271% | 
30 | Cc1ccccc1-c1cnc2[nH]cc(CC(=O)NCCN3CCOCC3)c2c1 | inconclusive: 100 µM [inhibitor, partial curve] |  | 
31 | O=C([C@@H]1C[C@H](F)CN1S(=O)(=O)c1ccc2c(c1)OCCO2)N1CCCCC1 |  | inactive: -3.03% | 
32 | O=C(NCc1ccc(C(F)(F)F)cc1)C1CCN(C(=O)c2ccc(-c3cccs3)cc2)CC1 | active: 31.6 µM |  | 
33 | COc1cccc(Nc2ncc3c(n2)C(C)(C(=O)NCCCn2ccnc2)CC3)c1 (stereo not given) | inconclusive: 112 µM [inhibitor, partial curve, poor fit] |  | 
34 | O=C(c1ccccc1)N1CCN(c2nccc(Nc3ccccc3Cl)n2)CC1 | inconclusive: 50.1 µM [inhibitor, partial curve, poor fit] |  | 
35 | O=C(Nc1cccc(Cl)c1)c1nc2sccn2c1-c1ccncc1 | inconclusive: 8.91 µM [inhibitor, full curve, poor fit] |  | 
36 | O=C(c1ccc(Cl)cc1)N1CCN(CCn2nc3n(c2=O)CCCC3)CC1 |  | inactive: -9.57% | 
37 | COc1ccc(C2Cn3nnc(C(=O)N4CCN(C(=O)c5ccccc5Cl)CC4)c3CO2)cc1 (stereo not given) | inconclusive: 50.1 µM [inhibitor, partial curve, poor fit] |  | 
38 | O=C(C1CC1)N1CCCC(c2noc(COc3ccccc3F)n2)C1 (stereo not given) | inconclusive: 70.8 µM [inhibitor, partial curve, poor fit] |  | 
39 | Cn1nccc1C(=O)N1C[C@@H](Oc2ccccc2)C[C@@H]1C(=O)N1CCOCC1 |  | inactive: -5.13% | 
40 | c1ccc(C2(c3ccccc3)CCCN(CCCn3cnnn3)C2)cc1 | inconclusive: 79.4 µM [inhibitor, partial curve] |  | 
41 | CN(Cc1ccccc1)C(=O)C1(C)COCc2cnc(Nc3ccccc3)nc21 (stereo not given) | inconclusive: 89.1 µM [inhibitor, partial curve, poor fit] |  | 
42 | CC1(c2ccccc2)N(Cc2ccccc2)C(=O)OC12CCN(Cc1cccc(C#N)c1)CC2 (stereo not given) | inconclusive: 31.6 µM [inhibitor, full curve, poor fit] |  | 
43 | O=C(NC1CC1)c1ccc2nnc(-c3cc[nH]c3)n2c1 |  |  | inactive [at 172 µM]
44 | CCNC(=O)CCc1c(C)nn(-c2ccccc2C)c1Oc1ccccc1F | inconclusive: 39.8 µM [inhibitor, partial curve, poor fit] |  | 

Row | SMILES | Potency | activity change, negative = cytotoxicity | outcome
45 | O=C(c1cc(-c2cnccc2Cl)c2cccn2n1)N1CCN(c2ncccn2)CC1 | inconclusive: 79.4 µM [inhibitor, partial curve] |  | 
46 | CC(C)C1C(=O)N(C)CCN1C(=O)c1cc(COc2cccc(F)c2)[nH]n1 (stereo not given) | inconclusive: 50.1 µM [inhibitor, partial curve, poor fit] |  | 
47 | COc1ccc(C(=O)N2C[C@@H](Oc3ccccc3)C[C@H]2C(=O)N2CCOCC2)c(OC)n1 |  | inactive: 2.7% | 
48 | COc1ccccc1-c1ccc(C(=O)N2CCC(NC(C)=O)CC2)cc1 | inconclusive: 89.1 µM [inhibitor, partial curve] |  | 
49 | COCCC(=O)N1CCc2c(n(Cc3ccc(OC)cc3)n(Cc3ccccc3)c2=O)C1 |  |  | inactive [at 172 µM]
50 | C#CCNC(=O)c1onc(-c2ccc(OC)cc2)c1[C@H](C)O |  | inactive: -9.06% [at 172 µM] | 
51 | COc1ccc(-c2nc3nccc(-c4ccco4)n3n2)c(OC)c1 | inconclusive: 70.8 µM [inhibitor, partial curve, poor fit] |  | 
52 | O=S(=O)(c1ccccc1)N1CCC(CCOc2ccccc2)C1 (stereo not given) | active: 79.4 µM |  | 
53 | COc1cccc(-c2ccc(CN3CCCC(NC(=O)c4ccc(C)cc4)C3)cc2)c1 (stereo not given) | active: 22.4 µM |  | 
54 | CN(C)C[C@@H]1CN(Cc2cccnc2)C[C@H]1NC(=O)C1(c2ccccc2)CC1 | inconclusive: 89.1 µM [inhibitor, single point] |  | 
55 | COc1ccc(-c2cc(-c3cn[nH]c3)c3cncn3c2)cn1 | inconclusive: 100 µM [inhibitor, partial curve] |  | 
56 | Cc1cc(C(=O)N2CCCCCNC(=O)[C@H]3C[C@H](C(=O)N4CCc5ccccc5C4)C[C@H]32)n(C)n1 |  | inactive: -2.69% | 
57 | COc1ccccc1[C@@H]1CN(C(=O)c2cc(C(C)C)[nH]n2)C[C@H]1C(=O)O |  | inactive: -2.08% | 
58 | CN1Cc2nc(OCc3ccc(F)cc3)ccc2OCC1=O | inconclusive: 89.1 µM [inhibitor, partial curve] |  | 
59 | CCc1nc2c(c(-c3ccc(Cl)cc3)n1)CCN([S+](=O)([O-])c1ccccc1)CC2 | active: 35.5 µM |  | 
60 | COC(=O)c1ccccc1NC(=O)Cn1ccn2nc(-c3ccccc3)c(CO)c2c1=O |  | inactive: -20% | 
61 | CN1C(=O)COC[C@@H]1[C@H](O)c1ccc(NC(=O)c2ccccc2)cc1 |  | inactive: -0.211% [at 172 µM] | 
62 | CN(Cc1ccc(-c2ccccc2)cc1)Cc1cccc(F)c1 | inconclusive: 112 µM [inhibitor, partial curve, poor fit] |  | 
63 | O=C(c1ccc(Cl)cc1)N1CCC(n2cc(-c3ccncc3)[nH]c2=O)CC1 |  | inactive: -14% | 
64 | Cn1cccc1C(=O)N[C@H]1C[C@H]2C(=O)Nc3ccc(/C=C/c4ccccc4)cc3C(=O)N2C1 | inconclusive: 22.4 µM [inhibitor, full curve, poor fit] |  | 
65 | O=C(NCc1ccccc1)[C@@H]1CCCN1c1nccc(Nc2ccccc2Cl)n1 | inconclusive: 31.6 µM [inhibitor, partial curve, poor fit] |  | 
